# Screen size: about 310,000 compounds; about 18,000 (5.8%) were called active. Inconclusive results, whose numbers are uncertain, are shown with a selection of clear calls. The call rests on the fitted dose curve; in most records, active means well fitted inhibition curve with a large enough effect; inconclusive means small, poorly fitted or top-dose-only effect, or another doubt; inactive means no such curve, though single readings can be large or run the other way. No potency is given beside an inconclusive call; the fits are too rough.
# Assay: Primary qHTS for delayed death inhibitors of the malarial parasite plastid, 48 hour incubation
# Conditions: P. falciparum luciferase growth in erythrocytes; series mostly up to 28.7 µM; activity change, negative = inhibition: at the top concentration
# In short: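 In quantitative HTS format, infected erythrocytes bearing luciferase-reporter parasites were treated for a single generation at 37 C. Luminescence after adding detection reagent served as the growth measure.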
# On the % scale 0 is the no-effect control and ±100 the full control effect; potency means the concentration at half of the fitted maximal effect; tags describe the fitted curve by direction and shape.
SMILES,Potency,"activity change, negative = inhibition"
Cc1ccc(C(=O)Cn2c(=N)n(CCN3CCOCC3)c3ccccc32)cc1,active: 9.28 µM,
c1ccc(-c2nc(NCc3ccco3)c3ccccc3n2)cc1,"inconclusive [inhibitor, partial curve]",
CC(C)Cn1c(N)c(C(=O)COC(=O)c2nccnc2N)c(=O)n(C)c1=O,"inconclusive [inhibitor, single point]",
Cc1ccc(OCC(=O)NC2CCCCCC2)cc1C,,inactive: 30.2%
CCSc1nsc(NC(=O)Nc2cccc(OC)c2)n1,"inconclusive [inhibitor, single point]",
COc1ccc(-c2cc(C(F)F)nn2-c2ccc(S(N)(=O)=O)cc2)cc1F,,inactive: -0.0177%
O=C(NCc1ccco1)Nc1ccc([N+](=O)[O-])cc1,inactive,
N#Cc1c(-c2ccncc2)c2c([nH]c1=S)CCCC2,"inconclusive [inhibitor, single point]",
O=C(Nc1ccc(F)cc1)Nc1ccccc1NS(=O)(=O)c1cccs1,,inactive: 8.58%
O=C(Cc1cccc(C(F)(F)F)c1)N1CCN(CC(=O)N2CCCC2)CC1,active: 13.1 µM,
COc1ccc(-c2ccc(/C=C(\NC(=O)c3ccccc3)C(=O)N3CCOCC3)o2)cc1,active: 13.1 µM,
CCCCC(=O)NNC(=O)N1c2ccccc2Sc2ccccc21,,inactive: -37.8% [at 0.00184 µM]
O=C(CN1CCC(c2nc3ccccc3[nH]2)CC1)NCc1ccc2c(c1)OCO2,"inconclusive [inhibitor, single point]",
CCCN(C(=O)CCSc1ccc(F)cc1)c1c(N)n(Cc2ccccc2)c(=O)[nH]c1=O,active: 11.7 µM,
O=C(CN1c2ccccc2Sc2ccccc21)N/N=C/c1ccccc1,"inconclusive [inhibitor, partial curve]",
CCN1C(=O)[C@H]2[C@@H](c3ccc(-c4cccc(Cl)c4)c(OC)c3)N[C@@](CC(C)C)(C(=O)OC)[C@H]2C1=O,active: 0.329 µM,
Cc1ccc2nc(SCC(=O)Nc3ccc4sc(C)nc4c3)c(C#N)cc2c1,"inconclusive [inhibitor, full curve]",
CCC(=O)c1ccc(OCC(O)CN2CCN(c3cccc(C(F)(F)F)c3)CC2)cc1 (stereo unspecified),"inconclusive [inhibitor, single point]",
COc1ccc(Cl)cc1NC(=S)N(Cc1ccc(C(=O)O)cc1)Cc1ccc(OC)c(OC)c1,"inconclusive [inhibitor, single point]",
Cc1nonc1OCCNCCNc1ccc([N+](=O)[O-])c2cccnc12,,inactive: 0.4%
O=S(=O)(c1ccccc1)N1CCC(n2nnc3cc(F)ccc32)CC1,,inactive: -12.8%
C=C(C)C(=O)Nc1cccc(C2=NOC3(C2)C[C@@H](C(N)=O)N(C(=O)c2ccc(Cl)cc2)C3)c1 (stereo partly specified),"inconclusive [inhibitor, single point]",
CC1C(=O)C(C)C(c2ccc([N+](=O)[O-])cc2)NC1c1ccc([N+](=O)[O-])cc1 (stereo unspecified),"inconclusive [inhibitor, single point]",
CC1(C)Cc2c(sc3nnn(Cc4ccc(Cl)cc4)c(=O)c23)CO1,,inactive: -16.3%

SMILES,Potency,"activity change, negative = inhibition"
CCCCCCSc1ccc(-c2nc3ccc(C)cn3c2NC2CCCCC2)cc1,active: 9.28 µM,
COc1ccccc1NC(=O)CCc1c(C)nc2c(-c3ccc(F)cc3)c(C)nn2c1C,"inconclusive [inhibitor, partial curve]",
Cc1ccc(NS(=O)(=O)N2CCOCC2)cc1Cl,,inactive: -9.57%
COc1ccc(C2CC(c3ccc(Cl)cc3)Nc3nc(NC(=O)c4ccco4)nn32)cc1 (stereo unspecified),active: 9.28 µM,
Cc1nc(-c2ccc(NC(=O)c3cccs3)cc2)cs1,"inconclusive [inhibitor, full curve, poor fit]",
CN(C)c1ccc(Nc2nc(N)c3ccccc3n2)cc1,"inconclusive [inhibitor, full curve, poor fit]",
O=C(NCCCN1CCCCC1)C1CCN(c2ncnc3c2nc2n3CCCCC2)CC1,,inactive: 1.11%
CN(C)c1cccc(C(=O)N2CCCC(CCC(=O)NCc3ccccc3F)C2)c1 (stereo unspecified),active: 3.29 µM,
CC1CC(C)CN(S(=O)(=O)c2ccc3c(c2)CC(=O)N3)C1 (stereo unspecified),"inconclusive [inhibitor, partial curve]",
Cc1cc2cc(CNC(=O)c3cccs3)ccc2[nH]1,"inconclusive [inhibitor, full curve, poor fit]",
Cc1cnc(C(=O)OCC(=O)Nc2ncc(Cl)cc2Cl)cn1,,inactive: -16.1%
COc1cnc(-c2ccccn2)nc1Oc1cccc(C(F)(F)F)c1,active: 2.33 µM,
COc1ccc(N(CC(=O)NCCC2=CCCCC2)S(=O)(=O)c2ccccc2)cc1OC,"inconclusive [inhibitor, single point]",
Cc1ccc(OCC(=O)Nc2ccc3c(c2)nc(CCN2CCC(C)CC2)n3C)cc1,"inconclusive [inhibitor, partial curve]",
N#C/C(=C\c1ccc(-c2ccccc2[N+](=O)[O-])o1)C(=O)N1CCOCC1,"inconclusive [inhibitor, single point]",
Nc1nonc1-n1nnc(C(=O)N/N=C/c2cccc(F)c2)c1-c1ccccc1,active: 5.22 µM,
Cc1ccc2nsnc2c1NC(=O)c1cccc([N+](=O)[O-])c1,"inconclusive [inhibitor, single point]",
CCOC(=O)N1CCN(C(=O)c2ccc3c(c2)sc2nc(-c4ccc(OC)cc4)cn23)CC1,"inconclusive [inhibitor, full curve]",
Cc1ncoc1C(=O)N1CCCC(N2CCN(c3ccccc3F)CC2)C1 (stereo unspecified),"inconclusive [inhibitor, partial curve, poor fit]",
CN1CC=C2C(C#N)=C(N)C(C#N)(C#N)C(c3cccc(Cl)c3Cl)C2C1 (stereo unspecified),"inconclusive [inhibitor, single point]",
CS(=O)(=O)c1ccc(Cl)c(NC(=O)CSc2nncn2-c2ccccc2)c1,,inactive: -25%
Cc1c(C)n(Cc2ccc(F)cc2)c2ccc(C(=O)NCCN3CCOCC3)cc12,,inactive: -13.6%
O=C(c1cc(-c2cccc(Br)c2)nc2ccccc12)N1CCCC1,"inconclusive [inhibitor, single point]",
COc1ccccc1NC(=O)C1=C(C)Nc2nc(-c3ccc(N(C)C)cc3)nn2C1c1ccncc1 (stereo unspecified),active: 14.7 µM,

SMILES,Potency,"activity change, negative = inhibition"
CCOc1ccc([N+](=O)[O-])cc1CNC1CCCCCCC1,"inconclusive [inhibitor, single point]",
O=C(COc1ccccc1)Nc1cccc(-c2nnc(-c3ccccc3)o2)c1,,inactive: -11.9%
CC(Nc1nc(N2CCOCC2)nc2ccccc12)c1ccccc1 (stereo unspecified),"inconclusive [inhibitor, single point]",
Cn1c(=O)c2c(nc(NCCCO)n2Cc2cccc(Br)c2)n(C)c1=O,"inconclusive [inhibitor, single point]",
COc1ccc(S(=O)(=O)Nc2ccc(S(=O)(=O)Nc3nccs3)cc2)cc1,active: 5.22 µM,
COc1ccccc1C1CC(c2ccccc2)=NN1S(=O)(=O)c1ccccc1 (stereo unspecified),"inconclusive [inhibitor, partial curve, poor fit]",
O=C(Nc1ccc(F)cc1)c1cc(S(=O)(=O)Nc2ccc(F)cc2)cs1,,inactive: 12.6%
O=C(NCC1COc2ccccc2O1)c1ccc(F)c(S(=O)(=O)N2CCOCC2)c1 (stereo unspecified),"inconclusive [inhibitor, single point]",
C/C(=N\NC(=S)Nc1ccccc1C)C1Cc2ccccc2C(=O)O1 (stereo unspecified),"inconclusive [inhibitor, full curve, poor fit]",
CCOC(=O)c1c(NC(=O)CSc2nnnn2C)sc(C)c1-c1ccc(C)cc1,active: 8.28 µM,
CC(=O)C1=C(c2ccccc2)NC(=S)NC1c1cc(Cl)c(OC(C)C)c(Cl)c1 (stereo unspecified),"inconclusive [inhibitor, single point]",
Cc1ccc2[nH]c(=S)cc(C)c2c1,"inconclusive [inhibitor, single point]",
Cc1cccc(C)c1NC(=O)CN(C)C(=O)Cn1c(=O)cnc2ccccc21,,inactive: -10.5%
COc1cc(CN2CCC(n3nccc3NC(=O)c3ccc4c(c3)OCO4)CC2)ccc1O,"inconclusive [inhibitor, single point]",
COc1cccc(C(=O)NOCc2ccccc2)c1OC,,inactive: 290%
COc1ccc(CCNc2c([N+](=O)[O-])c(=O)oc3ccccc23)cc1OC,"inconclusive [inhibitor, partial curve, poor fit]",
C[C@H](NC(=O)OC(C)(C)C)C(=O)N/N=C/c1ccc2nccnc2c1,,inactive: 50.3%
COC(=O)Cn1c(=NC(=O)c2cc(OC)cc(OC)c2)sc2cc(OC)ccc21,"inconclusive [inhibitor, single point]",
CC(=O)Nc1ccc(S(=O)(=O)N2CCN=C2SCc2ccc([N+](=O)[O-])cc2)cc1,"inconclusive [inhibitor, single point]",
Cc1ccc(-n2ncc3c(N4CCN(c5ccccc5)CC4)ncnc32)c(C)c1,active: 11.7 µM,
CCCCn1c(N)c(N(CC(C)C)C(=O)c2oc3c(Cl)cccc3c2C)c(=O)[nH]c1=O,"inconclusive [inhibitor, single point]",
COc1ccccc1CC(=O)O/N=C(\N)c1cccc([N+](=O)[O-])c1,,inactive: 43%
O=C(CN(C(=O)CSc1nc2ccccc2o1)c1ccccc1F)NC1CCCCC1,,inactive: 1.92%

# From PubChem BioAssay AID504832 (National Center for Advancing Translational Sciences (NCATS), 2011)
